Sequences and labels used below:
B1: Caulobacter ParB omega fusion; a variant is named by its letters at X, in order, B8GW30 (parent)
chain: MESVVVGEPGMSEGRRGLGRGLSALLGEVDAAPAQAPGEQLGGSREAPIEILQRNPDQPRRTFREEDLEDLSNSIREKGVLQPILVRPSPDTAGEYQIVAGERAWRAAQRAGLKTVPIMVRELDDLAVLEIGIIENVQRADLNVLEEALSYKVLMEKFERTQENIAQTIGKSXSHVANXMRLLXLPDEVQSYLVSGELTAXHARAIAAAADPVALAKQIIEGGLSVRETEALARKAPNLSAGKSKGGRPPRVKDTDTQALESDLSSVLGLDVSIDHRGSTGTLTITYATLEQLDDLCNRLTRGI

The full ranking holds about 81,000 sequences; the median of “one-hybrid fitness for binding NBS DNA” is about -0.1, and the highest 2% start at about 0.36. Some of the results follow.

In this assay the parent is B1. The assay can be described thus: one-hybrid fitness for binding NBS DNA (the Noc-binding site; scaled: cognate 1, non-cognate 0); higher = stronger binding. The settings on record: with NBS DNA site. Put shortly: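 On M9-minus-histidine containing 0.1 mM IPTG and 5 mM 3-AT, E. coli USO cells with a HIS3 reporter, site 19 bp from the promoter, grew 48 hours at 37°C to select Caulobacter ParB libraries randomised at four specificity codons. Plasmids from before and after were Illumina-sequenced, with three replicate libraries pooled and variants under 10 reads left out. Fitness is the log change in variant-to-wild-type read ratio, rescaled against cognate and non-cognate.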
Regarding RDAS, the “one-hybrid fitness for binding NBS DNA” value was at most 0.2.
Consider CMPC, for which the “one-hybrid fitness for binding NBS DNA” value was at most 0.2.
The same measure for HDQR: at most 0.2; for DSDF: at most 0.2.
Turning to DHHT, the “one-hybrid fitness for binding NBS DNA” value is at most 0.2.
NGAK: the “one-hybrid fitness for binding NBS DNA” value was at most 0.2.
The same measure for HKPG: at most 0.2.
Regarding VDIR, the “one-hybrid fitness for binding NBS DNA” value was at most 0.2.
For the variant RLGF, the “one-hybrid fitness for binding NBS DNA” value is at most 0.2.
Consider IIGA, for which the “one-hybrid fitness for binding NBS DNA” value was at most 0.2.
Turning to YRIC, the “one-hybrid fitness for binding NBS DNA” value was at most 0.2.
Turning to FIVI, the “one-hybrid fitness for binding NBS DNA” value is at most 0.2.
The same measure for PGCS: at most 0.2; for AVMC: at most 0.2.
For the variant ERRG, the “one-hybrid fitness for binding NBS DNA” value was at most 0.2.
Turning to RFYN, the “one-hybrid fitness for binding NBS DNA” value is at most 0.2.
With WFNG, the “one-hybrid fitness for binding NBS DNA” value is at most 0.2.
Turning to WRYW, the “one-hybrid fitness for binding NBS DNA” value was at most 0.2.
In the case of WKDS, the “one-hybrid fitness for binding NBS DNA” value was at most 0.2.
Turning to QNGE, the “one-hybrid fitness for binding NBS DNA” value is at most 0.2.
As to APPN, the “one-hybrid fitness for binding NBS DNA” value was at most 0.2.
Consider QFNN, for which the “one-hybrid fitness for binding NBS DNA” value is at most 0.2.
Take VSLP: the “one-hybrid fitness for binding NBS DNA” value is at most 0.2.
Regarding PTYT, the “one-hybrid fitness for binding NBS DNA” value is at most 0.2.
With KVDP, the “one-hybrid fitness for binding NBS DNA” value was at most 0.2.
For the variant SFQR, the “one-hybrid fitness for binding NBS DNA” value amounted to 0.363.
MHTF: the “one-hybrid fitness for binding NBS DNA” value is at most 0.2.
The same measure for SVKC: at most 0.2; for EYAY: at most 0.2; for SMLH: at most 0.2.
The same measure for WCDC: at most 0.2; for ESGC: at most 0.2.
The same measure for EHLT: at most 0.2; for AKSL: at most 0.2; for PMTH: at most 0.2.
For the variant AMLW, the “one-hybrid fitness for binding NBS DNA” value was at most 0.2.
For the variant HMQV, the “one-hybrid fitness for binding NBS DNA” value is at most 0.2.
The same measure for RWVM: 0.413.
As for FIRS, the “one-hybrid fitness for binding NBS DNA” value was at most 0.2.
The same measure for YKFL: at most 0.2; for HPLD: at most 0.2; for GAFG: at most 0.2.
For QIYT, the “one-hybrid fitness for binding NBS DNA” value is 0.335.
NNKS: the “one-hybrid fitness for binding NBS DNA” value is at most 0.2.
The same measure for YVDV: at most 0.2.
For PAPF, the “one-hybrid fitness for binding NBS DNA” value is at most 0.2.
On to GASE, for which the “one-hybrid fitness for binding NBS DNA” value is at most 0.2.
On to HKKQ, for which the “one-hybrid fitness for binding NBS DNA” value was at most 0.2.
In the case of EMVC, the “one-hybrid fitness for binding NBS DNA” value is at most 0.2.
The same measure for NCTA: at most 0.2; for QQVR: 0.491; for KGLT: at most 0.2.
With SRYT, the “one-hybrid fitness for binding NBS DNA” value is at most 0.2.
As to TSEF, the “one-hybrid fitness for binding NBS DNA” value was at most 0.2.
The same measure for VATC: at most 0.2.
Take RRSY: the “one-hybrid fitness for binding NBS DNA” value was found to be 0.393.
In the case of RVTH, the “one-hybrid fitness for binding NBS DNA” value was at most 0.2.
In the case of IRHW, the “one-hybrid fitness for binding NBS DNA” value was at most 0.2.
With KQMG, the “one-hybrid fitness for binding NBS DNA” value is at most 0.2.
Regarding GFVP, the “one-hybrid fitness for binding NBS DNA” value was at most 0.2.
YKMR: the “one-hybrid fitness for binding NBS DNA” value was at most 0.2.
Regarding NPVW, the “one-hybrid fitness for binding NBS DNA” value is at most 0.2.
As for TRQK, the “one-hybrid fitness for binding NBS DNA” value was at most 0.2.
The same measure for TGLL: at most 0.2; for CPRP: at most 0.2.
The same measure for TQHA: at most 0.2.
For ARHQ, the “one-hybrid fitness for binding NBS DNA” value is at most 0.2.
For the variant GSHT, the “one-hybrid fitness for binding NBS DNA” value was at most 0.2.
On to QLGA, for which the “one-hybrid fitness for binding NBS DNA” value was at most 0.2.
In the case of MQDG, the “one-hybrid fitness for binding NBS DNA” value was at most 0.2.
Take RFKI: the “one-hybrid fitness for binding NBS DNA” value was at most 0.2.
The same measure for AKEE: at most 0.2.
Consider PNKF, for which the “one-hybrid fitness for binding NBS DNA” value was at most 0.2.
Consider PFTN, for which the “one-hybrid fitness for binding NBS DNA” value is at most 0.2.
As for DNDW, the “one-hybrid fitness for binding NBS DNA” value was at most 0.2.
TTHN: the “one-hybrid fitness for binding NBS DNA” value is at most 0.2.
Turning to RVCS, the “one-hybrid fitness for binding NBS DNA” value amounted to 0.444.
On to AITT, for which the “one-hybrid fitness for binding NBS DNA” value is at most 0.2.
With KSKL, the “one-hybrid fitness for binding NBS DNA” value was at most 0.2.
The same measure for CCQR: at most 0.2.
For the variant NIQS, the “one-hybrid fitness for binding NBS DNA” value was at most 0.2.
Take FYTL: the “one-hybrid fitness for binding NBS DNA” value is at most 0.2.
As to NIRT, the “one-hybrid fitness for binding NBS DNA” value was at most 0.2.
As to QHNK, the “one-hybrid fitness for binding NBS DNA” value is at most 0.2.
For RDQC, the “one-hybrid fitness for binding NBS DNA” value is at most 0.2.
Regarding DSRA, the “one-hybrid fitness for binding NBS DNA” value was at most 0.2.
Regarding TQPT, the “one-hybrid fitness for binding NBS DNA” value is at most 0.2.
YIVW: the “one-hybrid fitness for binding NBS DNA” value is at most 0.2.
The same measure for NEWG: at most 0.2; for EMQT: at most 0.2; for TVKY: at most 0.2.
As to MHES, the “one-hybrid fitness for binding NBS DNA” value is at most 0.2.
In the case of DACG, the “one-hybrid fitness for binding NBS DNA” value was at most 0.2.
Take SKNC: the “one-hybrid fitness for binding NBS DNA” value is at most 0.2.
Take RNSW: the “one-hybrid fitness for binding NBS DNA” value was at most 0.2.
With SPRD, the “one-hybrid fitness for binding NBS DNA” value was at most 0.2.
Turning to LRVG, the “one-hybrid fitness for binding NBS DNA” value is at most 0.2.
The same measure for TGQT: at most 0.2; for NDIT: at most 0.2; for PQQE: at most 0.2.
Turning to CGPG, the “one-hybrid fitness for binding NBS DNA” value was at most 0.2.
As for TETG, the “one-hybrid fitness for binding NBS DNA” value was at most 0.2.
RGCR: the “one-hybrid fitness for binding NBS DNA” value is at most 0.2.
With SPFQ, the “one-hybrid fitness for binding NBS DNA” value is at most 0.2.
PENW: the “one-hybrid fitness for binding NBS DNA” value was at most 0.2.
Turning to CDCR, the “one-hybrid fitness for binding NBS DNA” value is at most 0.2.
STVI: the “one-hybrid fitness for binding NBS DNA” value was at most 0.2.
As for TAND, the “one-hybrid fitness for binding NBS DNA” value is at most 0.2.
For MCSP, the “one-hybrid fitness for binding NBS DNA” value is at most 0.2.
Turning to RTHC, the “one-hybrid fitness for binding NBS DNA” value was at most 0.2.
On to QPVK, for which the “one-hybrid fitness for binding NBS DNA” value was at most 0.2.
The same measure for PWMD: at most 0.2; for YYVC: at most 0.2.
For PAFL, the “one-hybrid fitness for binding NBS DNA” value was at most 0.2.
For the variant VMGC, the “one-hybrid fitness for binding NBS DNA” value was at most 0.2.
Take NYNS: the “one-hybrid fitness for binding NBS DNA” value is at most 0.2.
The same measure for DAAG: at most 0.2; for VVPD: at most 0.2; for KYQS: at most 0.2.
As to YVTH, the “one-hybrid fitness for binding NBS DNA” value is at most 0.2.
The same measure for ATQV: at most 0.2.
With CQAY, the “one-hybrid fitness for binding NBS DNA” value is at most 0.2.
Take NYRD: the “one-hybrid fitness for binding NBS DNA” value was at most 0.2.
With YVTN, the “one-hybrid fitness for binding NBS DNA” value is at most 0.2.
The same measure for IPDV: at most 0.2.
On to DLST, for which the “one-hybrid fitness for binding NBS DNA” value was at most 0.2.
For the variant DNDV, the “one-hybrid fitness for binding NBS DNA” value is at most 0.2.
The same measure for SIYY: at most 0.2.
As to RCYP, the “one-hybrid fitness for binding NBS DNA” value was at most 0.2.
Regarding HDDR, the “one-hybrid fitness for binding NBS DNA” value is at most 0.2.
In the case of TVQN, the “one-hybrid fitness for binding NBS DNA” value was at most 0.2.
With AFMM, the “one-hybrid fitness for binding NBS DNA” value was at most 0.2.
Consider MTKA, for which the “one-hybrid fitness for binding NBS DNA” value was at most 0.2.
On to CVLE, for which the “one-hybrid fitness for binding NBS DNA” value was at most 0.2.
The same measure for RCRI: at most 0.2; for GMHY: at most 0.2; for EGGR: at most 0.2.
The same measure for HSWS: at most 0.2; for QQGL: at most 0.2.
The same measure for AKTI: at most 0.2; for TETT: at most 0.2.
As to EICG, the “one-hybrid fitness for binding NBS DNA” value was at most 0.2.
As to FSWC, the “one-hybrid fitness for binding NBS DNA” value was at most 0.2.
In the case of DQSN, the “one-hybrid fitness for binding NBS DNA” value was at most 0.2.
Regarding QKKR, the “one-hybrid fitness for binding NBS DNA” value is 1.
In the case of DLYE, the “one-hybrid fitness for binding NBS DNA” value was at most 0.2.
The same measure for PMPG: at most 0.2; for RPHL: at most 0.2; for VYHR: at most 0.2.
As for QGGS, the “one-hybrid fitness for binding NBS DNA” value is at most 0.2.
For the variant DTGG, the “one-hybrid fitness for binding NBS DNA” value is at most 0.2.
On to KHQD, for which the “one-hybrid fitness for binding NBS DNA” value was at most 0.2.
The same measure for PVKA: at most 0.2.

These data come from a collection of fitness landscapes (doi:10.1016/j.celrep.2020.107928).
